Measured values reported in article PMC7819943, “Rice protein-binding microarrays: a tool to detect cis-acting elements near promoter regions in rice”.
The list shows a part of the results.

These sequences were tested against T1, OsWOX13 (Oryza sativa, UniProt Q5QMM3 1-267) (assay: protein-binding microarray (RPBM); PBS, 2% BSA, 51.3 ng/ul salmon testes DNA, 50 uM zinc acetate, 200 nM TF, 25 C, 1 h; high values mean tight binding). Conditions: protein: recombinant; tags: N-terminal polyhistidine and DsRed monomer fusion (pET32a); label: CyDye5-dUTP incorporated in the synthesized complementary strand; 3' TTTTT single-stranded linker to array surface; dsDNA, one strand shown.
T1 sequence: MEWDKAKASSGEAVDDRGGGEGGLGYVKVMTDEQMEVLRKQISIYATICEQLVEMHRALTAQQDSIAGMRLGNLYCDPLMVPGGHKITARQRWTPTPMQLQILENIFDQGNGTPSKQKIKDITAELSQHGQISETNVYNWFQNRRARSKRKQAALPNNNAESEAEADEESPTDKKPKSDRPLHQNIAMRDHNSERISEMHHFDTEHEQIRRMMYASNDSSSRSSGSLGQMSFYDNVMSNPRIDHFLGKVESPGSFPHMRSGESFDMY
Summary of the method: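 Transcription factors, each fused N-terminally to a polyhistidine tag and DsRed, were expressed in E. coli BL21-CodonPlus and purified on Ni–NTA. A custom Agilent array was made double-stranded by primer extension with Cy5-dUTP and blocked with 2% BSA. It was incubated with 200 nM protein in PBS, 2% BSA, salmon testes DNA and 50 µM zinc acetate at 25 °C for 1 h, then washed. The binding signal is per-feature fluorescence intensity (arbitrary units) read on an Axon 4000B scanner.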

Question: With “ATAATATGTAATTACCATATTTCTAAATATATCGATATTTCGGAGTCACCTAGTGCAG” as the sequence, how does the binding signal read?
Answer: Its binding signal is 13300 fluorescence intensity (a.u.).

Question: Which binding signal does the source give for “TCTGATAAATTTTAAGGCCTGTAGGTTTAAGGAAACATAGCGGAGTCACCTAGTGCAG” here?
Answer: The binding signal was 9420 fluorescence intensity (a.u.).

Question: For “GAGCTCGTCACTGTCAATTGACAAAATTCAGTAGCAAATCCGGAGTCACCTAGTGCAG”, which binding signal is on record?
Answer: Its binding signal is 11200 fluorescence intensity (a.u.).

Question: For “GAAAATTGTTCATATTACCTCCTAAGGTGGTTTTGCATATCGGAGTCACCTAGTGCAG”, which binding signal is on record?
Answer: The binding signal was 4340 fluorescence intensity (a.u.).

Question: With “AGGGATGACTGATGAACTTGTTCCTTCAGTTACACGCGCACGGAGTCACCTAGTGCAG” as the sequence, how does the binding signal read?
Answer: Its binding signal is 12500 fluorescence intensity (a.u.).

Question: How did the binding signal turn out when “TAAATAAGAGTATCGTGATTAGTTGAGATTGGAAACTGTGCGGAGTCACCTAGTGCAG” was run?
Answer: The binding signal was 9350 fluorescence intensity (a.u.).

Question: For “ACTCTAAATTTAAACTTTTCACTCAATTGAAACTTTTCAACGGAGTCACCTAGTGCAG”, which binding signal is on record?
Answer: Its binding signal is 15300 fluorescence intensity (a.u.).

Question: Which binding signal does the source give for “CTTAAACAAATGATAGTACGATCCCATCTGATTGGGTGTTCGGAGTCACCTAGTGCAG” here?
Answer: The binding signal was 7540 fluorescence intensity (a.u.).

Question: “AAAATTATCATAATAAATAATTGGAGCTGAATCGAGTAATCGGAGTCACCTAGTGCAG” was tested. Which binding signal did it give?
Answer: Its binding signal is 18100 fluorescence intensity (a.u.).

Question: “TTCACTTAGCTACATCAATCAAGGAAAATTAAGCTTAGCACGGAGTCACCTAGTGCAG” was tested. Which binding signal did it give?
Answer: Its binding signal is 12700 fluorescence intensity (a.u.).

Question: For “GCTAGTTAATTGTCGACAATTTTCAGCTTTCAATTTGTTGCGGAGTCACCTAGTGCAG”, which binding signal is on record?
Answer: The binding signal was 10200 fluorescence intensity (a.u.).

Question: “ATAATTGAGTAGATAATCCTTGCAATAATCCGCTCAATAACGGAGTCACCTAGTGCAG” was tested. Which binding signal did it give?
Answer: Its binding signal is 8180 fluorescence intensity (a.u.).

Question: “CAATTAAACACGTGATTTCTATCCGGCACGTAACGTACCCCGGAGTCACCTAGTGCAG” was tested. Which binding signal did it give?
Answer: Its binding signal is 16000 fluorescence intensity (a.u.).

Question: With “TTCTGTCAAACTAAAATTAATGGTCTGTCTGAAAGTGGTGCGGAGTCACCTAGTGCAG” as the sequence, how does the binding signal read?
Answer: The binding signal was 6110 fluorescence intensity (a.u.).

Question: Which binding signal does the source give for “TCTGATTGCAGAACATACAGAATCCTAATCAATGCTGACCCGGAGTCACCTAGTGCAG” here?
Answer: Its binding signal is 24600 fluorescence intensity (a.u.).

Question: With “TGGACAATCAATCAGGACAACCGCAGTACGGCATGGCTGACGGAGTCACCTAGTGCAG” as the sequence, how does the binding signal read?
Answer: Its binding signal is 29400 fluorescence intensity (a.u.).

Question: With “CGCTGTCATAAATTGAAATTAAATGACGATCAGCGTGAATCGGAGTCACCTAGTGCAG” as the sequence, how does the binding signal read?
Answer: The binding signal was 40300 fluorescence intensity (a.u.).

Question: “ATAACGACGAGGCAATCAAATGTATAGTAATCCCTTCGTCCGGAGTCACCTAGTGCAG” was tested. Which binding signal did it give?
Answer: Its binding signal is 4630 fluorescence intensity (a.u.).

Question: With “AATGATTTCTTCCATGAGGTTCTACCTCTTGTTAAAATTCCGGAGTCACCTAGTGCAG” as the sequence, how does the binding signal read?
Answer: The binding signal was 3530 fluorescence intensity (a.u.).

Question: For “TCTGATTAATTGTGCTTCACGGAAGGAAGGAAGGAGACTGCGGAGTCACCTAGTGCAG”, which binding signal is on record?
Answer: Its binding signal is 49000 fluorescence intensity (a.u.).

Question: For “AAATTAATTGCTGCACGATATGATATGGCCACTCGCACACCGGAGTCACCTAGTGCAG”, which binding signal is on record?
Answer: The binding signal was 36300 fluorescence intensity (a.u.).

Question: Which binding signal does the source give for “ATAATACTTAATTAATCACGTGCTAATGGCCTGCTCCGTTCGGAGTCACCTAGTGCAG” here?
Answer: The binding signal was 16600 fluorescence intensity (a.u.).

Question: “CCATCAATCACCCCATCGATGCTTCTCCACCGGAGAAGTCCGGAGTCACCTAGTGCAG” was tested. Which binding signal did it give?
Answer: Its binding signal is 12000 fluorescence intensity (a.u.).
